# Data: PubChem BioAssay AID463173 (ICCB-Longwood Screening Facility, Harvard Medical School, 2010)
# The whole screen tested about 52,000 compounds, of which about 1,700 (3.3%) were called active. No stated cut-off is given here; in the data, active means survival mostly below about 52% (no sharp cut-off); inactive means mostly above about 56%. The list shows a part of the results.
# Tested on: Wild type
# Experiment: growth inhibition of S. aureus wild type versus tarO mutant, primary screen, teichoic acid synthesis inhibitors, RN4220, OD600 (AID 463173)
# Conditions: S. aureus RN4220 wild type/DeltatarO growth, OD600, 18 h, stronger effect = lower value, screened at 18.75 µg/mL (by protocol)
row,SMILES,survival
1,CCCC1CC(C)(c2csc(NCC)n2)OC1=O (configuration not stated),inactive: 112%
2,C=CS(=O)(=O)c1ccc(Oc2ccc(S(=O)(=O)C=C)cc2)cc1,inactive: 108%
3,CCOC(=O)c1c(C)n(S(=O)(=O)c2ccc(C)cc2C)c2ccc(NS(=O)(=O)c3ccc(C)cc3C)cc12,inactive: 115%
4,CCCS(=O)(=O)N1CCN(S(=O)(=O)CCC)CC1,inactive: 105%
5,COc1ccccc1Nc1sc(C(=O)c2ccc3c(c2)OCO3)c(N)c1S(=O)(=O)c1ccccc1,inactive: 83%
6,Cc1ccc(C2=Nc3ccccc3N(CC(=O)Nc3ccccc3F)C(=O)C2)cc1C,inactive: 83%
7,CCCCN1C(=O)c2[nH]nc(-c3ccccc3O)c2C1c1ccc(C(C)(C)C)cc1 (configuration not stated),inactive: 106%
8,CCC1Oc2ccc(C)cc2N(CC(=O)NCc2ccc(OC)cc2)C1=O (configuration not stated),inactive: 68%
9,CCN(CC)CCCNC(=O)Cc1ccc(NC(=O)N2CCCCc3ccccc32)cc1,inactive: 71%
10,O=c1oc2ccccc2cc1-c1nnc(Nc2ccc(Cl)cc2Cl)s1,inactive: 67%
11,O=C(Nc1cccc(Cl)c1)c1ccc2nc(CCc3ccccc3)oc2c1,inactive: 73%
12,CCCn1c2ccccc2c2cnn(CC(=O)NCc3ccccc3Cl)c(=O)c21,inactive: 120%
13,Cc1ccc(-c2nc3cc(Cl)ccc3o2)cc1NC(=O)c1cc([N+](=O)[O-])ccc1N1CCOCC1,inactive: 99%
14,CC(=O)NC1CC(=O)N(c2ccc3c(c2)OCCO3)C1 (configuration not stated),inactive: 66%
15,Cc1nc(-c2ccccc2)sc1-c1ccc(SCC(=O)Nc2cccc(C(F)(F)F)c2)nn1,inactive: 67%
16,CCC(=O)N1CCc2cc(Br)cc(S(=O)(=O)N3CCC(C(=O)Nc4ccccc4CC)CC3)c21,inactive: 89%
17,COc1ccc(NC(=O)CSCC(=O)O)cc1,inactive: 102%
18,COc1cccc(C2CC(=O)Nc3cc4c(cc32)OCO4)c1OC(C)C (configuration not stated),inactive: 91%
19,O=C1c2ccccc2C2(c3ccccc3)NCCCN12 (configuration not stated),inactive: 111%
20,CC(C)Oc1ccc(CNC(=O)C2CCN(c3nc4ccccc4nc3C(F)(F)F)CC2)cc1,inactive: 88%
21,CCOc1cc(C(=O)Nc2ccncc2)cc(OCC)c1OCC,inactive: 100%
22,COc1cc(OC)c(NC(=O)C2CCN(C(=O)c3sc4nc[nH]c(=O)c4c3C)CC2)cc1Cl,inactive: 117%

row,SMILES,survival
1,CCOC(=O)C1CCN(C(c2cccc(F)c2)c2c(O)cc(C)n(Cc3ccco3)c2=O)CC1 (configuration not stated),inactive: 132%
2,COCCCNC(=O)c1cnc2c(-c3ccc(F)cc3)c(C)nn2c1C,inactive: 134%
3,Cn1nc(-c2ccccc2F)c2cc(C(=O)NCCc3ccc(Cl)cc3)sc21,inactive: 83%
4,CCOc1cccc(C(=O)N2CCC(c3nc4ccccc4s3)CC2)c1,inactive: 86%
5,COc1ccc(-c2noc(N(c3cccc(Cl)c3)c3nc(-c4ccc(OC)c(OC)c4)no3)n2)cc1OC,inactive: 164%
6,O=C(c1ccc(Br)cc1)N1CCN(CCc2ccncc2)CC1,inactive: 89%
7,CN(C)c1ccc(CNC(=O)c2cnc3sc(N4CCOCC4)nn3c2=O)cc1,inactive: 94%
8,CCOc1ccc(-c2nc(SCC(=O)c3ccccc3)n[nH]2)cc1,inactive: 154%
9,CC(=O)c1ccc(NC(=O)CSc2ccc(-c3cccs3)nn2)cc1,inactive: 133%
10,Cc1ccc(S(=O)(=O)Cc2ccc(C(=O)NCCc3ccc(Cl)cc3)o2)cc1,inactive: 79%
11,Brc1cccc(-c2nnc(CN3CCN(c4ccccn4)CC3)o2)c1,inactive: 79%
12,CCOC(=O)c1c(NC(=O)c2ccc(S(=O)(=O)N3CCC(C)CC3)cc2)sc2c1CCN(CC)C2,inactive: 71%
13,CCn1c(C)nnc1SCC(=O)Nc1cccc(Cl)c1,inactive: 99%
14,Cc1cccc(-n2cc(-c3ccccc3)c3c(NC4CCCC4)ncnc32)c1,inactive: 120%
15,C=Cc1ccc(Cn2nc(-c3ccc(C)cc3)ccc2=O)cc1,inactive: 57%
16,CCOC(=O)c1cc(C)n(CC2CCC(C(=O)Nc3cccc(C)c3)CC2)c1C (configuration not stated),inactive: 73%
17,Cc1cc(C)nc(NC(=NCCc2c[nH]c3ccc(Cl)cc23)NC(=O)c2ccccc2C)n1,inactive: 86%
18,COC(=O)C1=C(C)NC(=O)C1(NC(=O)c1cc(OC)c(OC)c(OC)c1)C(F)(F)F (configuration not stated),inactive: 70%
19,CCOC(=O)c1c(S(=O)(=O)N2CCCC(C(=O)Nc3cc(C)ccn3)C2)c(C)n(C)c1C (configuration not stated),inactive: 75%
20,COc1ccc(CCN2C(=O)C3C(C(=O)Nc4cc(C)on4)C4(C)C=CC3(O4)C2C(=O)NC2CCCCC2)cc1 (configuration not stated),inactive: 116%
21,COc1ccc(OC)c(NC(=O)C2CCN(S(=O)(=O)c3ccc4c(c3)CCCC(=O)N4)CC2)c1,inactive: 63%
22,CCOC(=O)c1ccc(NC(=O)CCC(=O)N2Cc3ccccc3Oc3ncccc32)cc1,inactive: 101%

row,SMILES,survival
1,O=C(O)CCCn1cnc2ccccc2c1=O,inactive: 114%
2,O=C(NC1CCCCC1)c1ccc(CSc2nc3cccnc3n2Cc2ccc(F)cc2)cc1,inactive: 19%
3,Cc1cccc(-n2c(Cc3ccccc3)nnc2SCc2nc(-c3cccs3)no2)c1,inactive: 63%
4,O=C1c2[nH]nc(-c3ccccc3O)c2C(c2ccccc2F)N1Cc1cccnc1 (configuration not stated),inactive: 94%
5,Cc1ccc2cc(C#N)c(NCCNC(=O)Nc3ccccc3C)nc2c1,inactive: 117%
6,O=C1CC(c2nnc(Cc3ccc(F)cc3Cl)o2)CN1c1ccccc1 (configuration not stated),inactive: 110%
7,O=C(CN1C(=O)COc2ccc(S(=O)(=O)N3CCCC3)cc21)N1CCN(c2ccc(F)cc2)CC1,inactive: 93%
8,O=C(NCc1ccco1)C1CCN(S(=O)(=O)Cc2ccccc2)CC1,inactive: 108%
9,COCCNc1ccc(-c2nc(-c3ccco3)no2)cc1[N+](=O)[O-],inactive: 79%
10,CCOC(=O)c1ccc(N2C(=O)c3n[nH]c(-c4ccco4)c3C2c2ccc(O)c(OCC)c2)cc1 (configuration not stated),inactive: 67%
11,Cc1cccc(Nc2nnc(-c3ccc(C)c(S(=O)(=O)NCC4CCCO4)c3)c3ccccc23)c1 (configuration not stated),inactive: 81%
12,COC(=O)c1ccc(NC(=O)CN2C(=O)CCc3cc(S(=O)(=O)N4CCCCC4)ccc32)cc1,inactive: 74%
13,Cc1[nH]c(=O)[nH]c(=O)c1S(=O)(=O)N1CCN(c2ccccc2Cl)CC1,inactive: 67%
14,O=C(O)CCn1c(=O)c2cccn2c2cccnc21,inactive: 85%
15,COc1ccc(S(=O)(=O)NCC(c2ccco2)N2CCN(c3ccccc3)CC2)cc1OC (configuration not stated),inactive: 80%
16,CCOC(=O)c1cc(-c2ccccc2)n(CCCC(=O)Nc2cccc(C)c2C)c1C,inactive: 136%
17,N#Cc1ccccc1Cn1c(=O)n(-c2cccc(C(F)(F)F)c2)c(=O)c2sccc21,inactive: 85%
18,CCN1CCN(C(=S)NCC2CCCO2)CC1 (configuration not stated),inactive: 96%
19,CCc1ccc(NC(=O)CC2C(=O)N(c3ccc(Cl)cc3)C(=O)N2Cc2ccco2)cc1 (configuration not stated),inactive: 81%
20,CCc1ccccc1Nc1nn2c(=O)c3ccc(C(=O)NC(C)c4ccccc4)cc3nc2s1 (configuration not stated),inactive: 69%
21,COc1cc2[nH]c(=O)n(CCCC(=O)NCc3ccc(Cl)cc3)c(=O)c2cc1OC,inactive: 90%
22,Cc1ccc(NC(=O)C(=O)NCC(c2cccnc2)N2CCN(c3ccccc3F)CC2)cc1Cl (configuration not stated),inactive: 99%

row,SMILES,survival
1,COc1ccccc1NC(=O)c1sc2nc(C)c(C(=O)Nc3ccc(C)cc3C)c(-c3cccs3)c2c1N,inactive: 93%
2,Cc1cccc2sc(N(Cc3cccnc3)C(=O)c3cccs3)nc12,inactive: 70%
3,CCc1ccc(CN2CCc3nc(Nc4ccccc4)ncc3C2)cc1,inactive: 69%
4,CCOc1cc2[nH]c(=O)n(CCCCC(=O)N3CCN(c4cccc(Cl)c4)CC3)c(=O)c2cc1OCC,inactive: 58%
5,CCOC(=O)c1c(C)[nH]c(CCC(=O)NCc2ccc(F)cc2)c1C,inactive: 72%
6,CC(=O)Nc1ccc(NC(=O)c2cc3sccc3n2Cc2ccc(F)cc2)cc1,inactive: 160%
7,CC(C)(C)C1CCc2c(sc3nc(-c4cc5cc(Br)ccc5oc4=O)[nH]c(=O)c23)C1 (configuration not stated),inactive: 86%
8,Cc1ccccc1OCC(=O)Nc1ccc2nc(SCC(=O)N3CCc4ccccc43)sc2c1,inactive: 82%
9,Cc1cccc(N2CCN(S(=O)(=O)c3ccc(-c4cc(C(F)(F)F)on4)s3)CC2)c1C,inactive: 73%
10,O=C(C1CCCN(S(=O)(=O)c2ccc(Br)s2)C1)N1CCN(c2cccc(Cl)c2)CC1 (configuration not stated),inactive: 73%
11,COc1cccc(CC(=O)Nc2ccc(-c3nc4ccccc4s3)cc2)c1,active: -3%
12,COc1ccccc1C1Nc2c(sc3nc(C)cc(C)c23)C(=O)N1c1ccccc1 (configuration not stated),inactive: 74%
13,COc1cccc(C2C(C(=O)Nc3ccc(Cl)cc3)=C(C)Nc3nc4ccccc4n32)c1 (configuration not stated),inactive: 82%
14,CCC(C)Sc1oc(-c2ccco2)nc1S(=O)(=O)c1ccc(C)cc1 (configuration not stated),active: -12%
15,CCc1nnc(NC(=O)CN2CCN(c3ccccc3)CC2)s1,inactive: 98%
16,COc1ccc(OCC(=O)Nc2cc(-c3nc4ccccc4s3)ccc2C)cc1,inactive: 72%
17,COc1ccc2c(c1)c1c(c(=O)n(-c3ccc(C)cc3)c(=O)n1CC(=O)NCc1ccc(C)cc1)n2C,inactive: 70%
18,COc1ccc(Cl)cc1NC(=O)c1nnn(Cc2cccc(C(F)(F)F)c2)c1N,inactive: 142%
19,Cc1cc2c(cc1C)NC(CC(=O)Nc1cccc(Cl)c1)C(=O)N2 (configuration not stated),inactive: 98%
20,NS(=O)(=O)c1ccc(CCNC(=O)Cn2c(-c3cccs3)cc3ccccc32)cc1,inactive: 153%
21,CCN(CC)c1ccc(NC(=O)CCc2nc3cccnc3n2Cc2cccs2)c(C)c1,inactive: 73%
